Results taken from the supplement of paper PMC10338343.
± gives the standard deviation. The list shows a part of the results, in another mix than the full data.

system: MIWI (PIWIL1) piRISC loaded with piRNA #1 (30 nt); assay: pre-steady-state target cleavage rate (min^-1); MIWI and MILI are mouse PIWI proteins and EfPiwi is from a freshwater sponge; tags in brackets are library labels; higher = faster piRNA-guided slicing of the target; details: guide: piRNA #1 5'p-UGAGGUAGUAGGUUGUAUAGUAUCCAGAGG; auxiliary factor: 500 nM mouse GTSF1
Outline: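 Cleave-'n-Seq: a transcribed, DNA-blocked target RNA library (0.1 nM) was mixed with 1 nM active affinity-purified piRISC carrying one synthetic guide, with or without 500 nM GTSF1 partner protein, in HEPES–potassium acetate buffer at 33 °C for 0–8 or 0–960 min. Uncleaved targets were sequenced and normalised to depth and to weakly complementary targets. Three trials were pooled, and k3 was capped at 0.0001 min^-1. The pre-steady-state cleavage rate came from a burst-and-steady-state fit.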

Row | Sequence | pre-steady-state target cleavage rate
1 | GGACUGGAUACUAUACAACCUACUAUCUCA | 0.789 ± 0.087
2 | GGAGACGAUACUAUAAACCUACUACCUCA | 0.883 ± 0.11
3 | GGAGAGGAUAGUAUACUACCUACUACCUCA | 0.0593 ± 0.011
4 | GGAGUGGAUACAAUACAACCUACUAGCUCA | 0.177 ± 0.031
5 | GGAGACGUAUACUAUACAACCUACUACCUCA | 1.76 ± 0.1
6 | GGAGACCUAUCUAUUCAACCUAGUACCUCA | 0.0592 ± 0.013
7 | GGAGUGGAAUACUAUACAACCUACUACCUCA | 1.53 ± 0.096
8 | GGAGUGGAUACUAUACAACCUAGAUGGAGA [g9:g26:cont:t1A] | < 0.0001
9 | GGAGUGGAUACUAUUCAACCUACAACCUCA | 0.234 ± 0.028
10 | GGUCUGGAUGCUAUACAACCUACUACCUCA | 1.88 ± 0.14
11 | GGUCUGGAUAGCUAUACAACCUACUACCUCA | 0.662 ± 0.056
12 | GGAGACCUAUCUAUACAACCUACUAGGACA | 0.00896 ± 0.0047
13 | GGUCUGGAUACUAUGCAACCUACUACCUCA | 1.73 ± 0.12
14 | GGAGUGCAUACAAUACAACCUACUACCUCA | 1.11 ± 0.092
15 | GGAGACCUUACUAUAGUUCCUACUACCUCA | 0.00439 ± 0.002
16 | GGAGAGGAUACUAUACAACCUACAUGCUCA | 0.123 ± 0.028
17 | GGAGACCUUACUAUACAACUACUACCUCA | 0.0384 ± 0.0051
18 | GGACAGGAUACUAUACAAGCUACUACCUCA | 1.19 ± 0.055
19 | GGAGACGAUACUAUACAACCUACUAUCUCA | 1.51 ± 0.11
20 | GGAGACCUAUGAUAUGUACCUCUACCUCA | < 0.0001

Row | Sequence | pre-steady-state target cleavage rate
21 | GGAGACCUAUGAUAUGUACCGACUACCUCA | < 0.0001
22 | GGAGACCUAACCAUACAACCUACUACCUCA | 0.468 ± 0.23
23 | GGAGACCUAUGUAUACAACCUAGUACCACA | 0.00838 ± 0.0025
24 | GGAGACCUUACUAUACAUCCUACUACCUGA | 0.542 ± 0.059
25 | GGAGACCUAACUAUACAACCUAGUACGUCA | 0.206 ± 0.056
26 | GGAGACCUUACAAUACUACCUACUACCUCA | 0.00811 ± 0.0031
27 | GGAGACCUAUGAUAUGUACCUACCUACCUCA | < 0.0001
28 | GGUCUGGAUACUAUACAACCGACUACCUCA | 0.00977 ± 0.0019
29 | CCUCUGGAUACUAUACAACGUACAACCUCA | 0.961 ± 0.098
30 | GGAGAGGAUACUAUAGAACCUACUACCACA | 0.211 ± 0.041
31 | GGACUGGAUACUAUUCAACCUACUACCACA | 0.421 ± 0.051
32 | GCUCUGGAUACUACUACAACCUACUACCUCA | 1.45 ± 0.097
33 | GGAGACCUAUGAUAUGAACCUACUACGAGA [g5:g14:cont:t1A] | < 0.0001
34 | GGACUGGAUACUAUACAAGCUACUUCCUCA | 0.407 ± 0.036
35 | GGAGACCUUACUAUACAACCUACUACCUGCA | 1.21 ± 0.098
36 | CCUCUGGAUACUAAACAACCUUCUACCUCA | 0.626 ± 0.037
37 | CCACUGGAUACUAUACAACCUACUAGCUCA | 1.25 ± 0.085
38 | GGAGACCUAUGAAUACAACCUACUAGGAGA [g6:g18:cont:t1A] | < 0.0001
39 | GCUCUGGAUACUAUACAACCUACUACCUCCA | 2.15 ± 0.14
40 | GGUCUGGAUUCUAUACAAGCUACUACCUCA | 1.17 ± 0.054
